Assay results published in paper PMC5738441.
No constants are given. Whether binding was seen depends on the method and setting. Binding seen in cells or lysates may run through a third protein. Some binding calls cover weakened binding; strength is not graded here. For some assays here: Where a sequence is shown, tags or fusion partners need not be part of it.

The chains behind the UniProt entries cited, without tags or fusion partners.
UniProt O15169: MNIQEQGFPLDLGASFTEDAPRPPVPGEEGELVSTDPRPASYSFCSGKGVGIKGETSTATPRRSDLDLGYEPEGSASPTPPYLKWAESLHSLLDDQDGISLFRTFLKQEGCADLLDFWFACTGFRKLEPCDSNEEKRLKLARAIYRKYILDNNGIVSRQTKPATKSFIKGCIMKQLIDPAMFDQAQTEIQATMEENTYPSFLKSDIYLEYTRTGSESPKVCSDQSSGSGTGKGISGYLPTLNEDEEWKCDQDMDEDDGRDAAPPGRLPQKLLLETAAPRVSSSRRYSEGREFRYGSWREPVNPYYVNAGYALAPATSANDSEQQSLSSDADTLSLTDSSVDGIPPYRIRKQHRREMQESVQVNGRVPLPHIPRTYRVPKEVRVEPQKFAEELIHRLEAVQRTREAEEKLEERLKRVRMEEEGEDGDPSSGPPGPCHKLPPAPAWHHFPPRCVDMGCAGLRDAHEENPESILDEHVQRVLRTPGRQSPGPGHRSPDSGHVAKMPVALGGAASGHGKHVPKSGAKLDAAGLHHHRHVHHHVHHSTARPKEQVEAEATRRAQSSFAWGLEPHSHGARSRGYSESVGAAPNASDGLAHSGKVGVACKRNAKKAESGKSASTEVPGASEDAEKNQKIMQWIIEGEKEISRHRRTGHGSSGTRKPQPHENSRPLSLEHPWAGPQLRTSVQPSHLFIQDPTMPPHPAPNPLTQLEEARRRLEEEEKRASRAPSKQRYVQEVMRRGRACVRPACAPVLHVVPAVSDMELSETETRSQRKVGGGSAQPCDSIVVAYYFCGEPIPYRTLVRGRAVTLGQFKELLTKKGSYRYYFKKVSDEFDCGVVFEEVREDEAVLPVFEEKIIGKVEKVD
UniProt O96017: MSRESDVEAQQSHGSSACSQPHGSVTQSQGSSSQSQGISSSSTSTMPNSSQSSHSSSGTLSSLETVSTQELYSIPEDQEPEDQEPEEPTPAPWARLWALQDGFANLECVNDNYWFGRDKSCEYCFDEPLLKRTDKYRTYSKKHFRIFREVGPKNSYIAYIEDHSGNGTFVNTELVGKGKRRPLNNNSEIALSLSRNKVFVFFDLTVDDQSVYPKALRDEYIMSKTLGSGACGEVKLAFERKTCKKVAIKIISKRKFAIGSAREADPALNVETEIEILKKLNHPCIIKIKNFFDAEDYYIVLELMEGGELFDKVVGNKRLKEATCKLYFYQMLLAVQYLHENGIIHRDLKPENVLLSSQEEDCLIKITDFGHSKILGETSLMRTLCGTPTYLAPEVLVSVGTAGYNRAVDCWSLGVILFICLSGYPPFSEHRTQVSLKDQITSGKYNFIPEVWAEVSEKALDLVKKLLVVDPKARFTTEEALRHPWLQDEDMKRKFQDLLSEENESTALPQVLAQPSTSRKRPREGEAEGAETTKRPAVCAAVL
UniProt Q9UPY3: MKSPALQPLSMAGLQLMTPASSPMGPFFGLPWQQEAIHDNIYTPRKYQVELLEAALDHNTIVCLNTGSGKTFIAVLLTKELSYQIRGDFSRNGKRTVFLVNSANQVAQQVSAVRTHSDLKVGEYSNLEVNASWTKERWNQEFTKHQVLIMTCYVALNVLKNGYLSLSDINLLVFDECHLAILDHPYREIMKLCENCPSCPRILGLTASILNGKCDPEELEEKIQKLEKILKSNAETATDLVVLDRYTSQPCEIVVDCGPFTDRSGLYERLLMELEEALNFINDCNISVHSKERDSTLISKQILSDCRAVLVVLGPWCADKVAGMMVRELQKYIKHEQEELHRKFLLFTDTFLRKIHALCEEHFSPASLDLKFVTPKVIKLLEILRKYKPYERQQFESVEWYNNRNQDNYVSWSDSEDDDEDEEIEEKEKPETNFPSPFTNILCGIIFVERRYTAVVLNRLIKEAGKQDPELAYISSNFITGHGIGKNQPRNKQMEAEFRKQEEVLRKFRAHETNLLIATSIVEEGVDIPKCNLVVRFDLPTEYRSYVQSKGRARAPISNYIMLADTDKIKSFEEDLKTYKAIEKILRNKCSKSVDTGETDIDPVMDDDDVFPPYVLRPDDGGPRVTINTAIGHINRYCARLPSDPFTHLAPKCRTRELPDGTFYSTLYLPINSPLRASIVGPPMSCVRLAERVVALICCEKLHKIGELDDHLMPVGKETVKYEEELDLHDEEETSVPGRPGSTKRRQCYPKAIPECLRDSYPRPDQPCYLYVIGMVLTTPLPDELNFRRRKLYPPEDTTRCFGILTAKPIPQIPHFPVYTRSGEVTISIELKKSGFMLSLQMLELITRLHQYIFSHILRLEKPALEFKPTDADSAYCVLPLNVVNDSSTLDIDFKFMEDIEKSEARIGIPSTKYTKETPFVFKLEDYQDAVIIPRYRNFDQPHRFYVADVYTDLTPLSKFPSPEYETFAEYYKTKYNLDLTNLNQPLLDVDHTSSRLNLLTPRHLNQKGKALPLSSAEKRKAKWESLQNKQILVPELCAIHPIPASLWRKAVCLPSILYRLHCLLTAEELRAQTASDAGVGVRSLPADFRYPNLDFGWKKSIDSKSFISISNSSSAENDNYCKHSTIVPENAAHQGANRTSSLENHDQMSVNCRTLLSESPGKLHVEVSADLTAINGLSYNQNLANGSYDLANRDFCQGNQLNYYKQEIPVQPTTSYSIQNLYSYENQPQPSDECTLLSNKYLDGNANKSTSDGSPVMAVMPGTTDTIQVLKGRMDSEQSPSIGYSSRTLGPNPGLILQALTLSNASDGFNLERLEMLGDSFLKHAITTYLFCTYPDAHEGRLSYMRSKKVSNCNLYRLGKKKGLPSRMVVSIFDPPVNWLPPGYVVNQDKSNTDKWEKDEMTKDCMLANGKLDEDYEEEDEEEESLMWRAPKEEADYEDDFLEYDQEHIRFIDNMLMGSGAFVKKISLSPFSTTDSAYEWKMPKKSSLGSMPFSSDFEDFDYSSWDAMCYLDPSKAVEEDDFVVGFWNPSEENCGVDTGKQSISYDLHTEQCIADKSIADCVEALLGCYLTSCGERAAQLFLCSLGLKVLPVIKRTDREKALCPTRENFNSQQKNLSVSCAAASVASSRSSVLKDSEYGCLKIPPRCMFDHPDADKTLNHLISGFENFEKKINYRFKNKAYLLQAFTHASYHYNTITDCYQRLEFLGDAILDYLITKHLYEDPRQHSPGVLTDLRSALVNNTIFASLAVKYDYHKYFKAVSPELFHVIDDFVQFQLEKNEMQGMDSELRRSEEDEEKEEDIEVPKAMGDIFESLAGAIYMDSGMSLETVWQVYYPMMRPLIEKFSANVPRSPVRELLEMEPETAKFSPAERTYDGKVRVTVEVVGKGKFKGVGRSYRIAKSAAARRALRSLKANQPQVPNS
UniProt Q13185: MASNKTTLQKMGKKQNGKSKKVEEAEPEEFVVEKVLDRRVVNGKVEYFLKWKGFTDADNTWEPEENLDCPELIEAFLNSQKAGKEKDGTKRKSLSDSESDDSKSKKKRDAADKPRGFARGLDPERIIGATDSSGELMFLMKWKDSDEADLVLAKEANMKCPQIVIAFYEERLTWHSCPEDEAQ

T1: GFP-NKD2 WT (human) (UniProt Q969F2)
T1 sequence: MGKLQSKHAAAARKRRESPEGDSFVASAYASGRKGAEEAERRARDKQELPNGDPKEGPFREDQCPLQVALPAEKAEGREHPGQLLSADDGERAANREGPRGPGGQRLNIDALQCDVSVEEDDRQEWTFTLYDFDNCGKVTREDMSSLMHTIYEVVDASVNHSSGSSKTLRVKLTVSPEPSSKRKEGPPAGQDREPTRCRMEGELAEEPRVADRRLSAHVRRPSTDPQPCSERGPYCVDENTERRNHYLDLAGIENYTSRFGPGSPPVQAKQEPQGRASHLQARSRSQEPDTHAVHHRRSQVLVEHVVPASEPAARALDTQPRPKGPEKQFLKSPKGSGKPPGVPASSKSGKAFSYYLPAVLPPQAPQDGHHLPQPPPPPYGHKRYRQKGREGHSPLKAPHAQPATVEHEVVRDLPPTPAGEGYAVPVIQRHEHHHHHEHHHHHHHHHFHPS

B1: HA-NKD1 (protein, UniProt Q969G9 1-470)
chain: MGKLHSKPAAVCKRRESPEGDSFAVSAAWARKGIEEWIGRQRCPGGVSGPRQLRLAGTIGRSTRELVGDVLRDTLSEEEEDDFRLEVALPPEKTDGLGSGDEKKMERVSEPCPGSKKQLKFEELQCDVSMEEDSRQEWTFTLYDFDNNGKVTREDITSLLHTIYEVVDSSVNHSPTSSKMLRVKLTVAPDGSQSKRSVLVNQADLQSARPRAETKPTEDLRSWEKKQRAPLRFQGDSRLEQSGCYHHCVDENIERRNHYLDLAGIENYTSQFGPGSPSVAQKSELPPRTSNPTRSRSHEPEAIHIPHRKPQGVDPASFHFLDTPIAKVSELQQRLRGTQDGSKHFVRSPKAQGKSVGVGHVARGARNKPPLGPAIPAVSPSAHLAASPALLPSLAPLGHKKHKHRAKESQQGCRGLQAPLASGGPVLGREHLRELPALVVYESQAGQPVQRHEHHHHHEHHHHYHHFYQT
B2: NKD2 (Naked Cuticle Homolog 2) (protein, UniProt Q969F2 1-451)
chain: T1 sequence
B3: GFP-NKD2 WT (protein, UniProt Q969F2 1-451)
chain: T1 sequence

How the values were obtained:
[1] = biological target: tankyrase 1 (human (endogenous in HEK293T)) (UniProt O95271); test: co-IP; endogenous proteins; HEK293T WT cell lysates (TNE buffer: 10 mM Tris pH 7.8, 1% Nonidet P-40, 0.15 M NaCl, 1 mM EDTA) immunoprecipitated with control or TNKS1 IgG (rabbit anti-tankyrase 465) and Protein G-Sepharose, immunoblot
[2] = biological target: T1, GFP-NKD2 WT (human); test: co-IP; HEK293T cells transfected with GFP, GFP-NKD2 WT or GFP-NKD2 Mut; lysates (TNE buffer) immunoprecipitated with GFP antibody, immunoblot for endogenous tankyrase
[3] = biological target: tankyrase 1 (human (endogenous in HEK293T)) (UniProt O95271); test: co-IP; HEK293T cells transfected with the tagged protein; lysates (TNE buffer) immunoprecipitated with anti-tankyrase IgG (endogenous tankyrase as bait) or control IgG, immunoblot

| Molecule | binding [1] | further results |
| --- | --- | --- |
| Axin1 (from UniProt O15169 1-862) | binds |  |
| Chk2 (CHEK2) (from UniProt O96017 1-543) (enzyme) | no binding |  |
| Dicer (from UniProt Q9UPY3 1-1922) (enzyme) | binds |  |
| HP1ϒ (CBX3) (from UniProt Q13185 1-183) | no binding |  |
| tankyrase 1 (from UniProt O95271 1-1327) (enzyme) |  | binding [2]: binds |
| B1 |  | binding [3]: binds |
| B2 | binds |  |
| B3 |  | binding [3]: binds |
